According to the supplement of paper PMC4604168 (melanoma cell lines):
The list shows a part of the results. Repeats are few or missing, and single values can be far off.

Legend:
Experiment in all cases: cell count relative to DMSO control; melanoma cells; higher = more viable cells
Details in all cases: library dose: standard library concentration; 72 h
[1] = test system: G361
[2] = test system: IPC-298
[3] = test system: IST-MEL1
[4] = test system: LB2518-MEL
[5] = test system: LOXIMVI
[6] = test system: MEL-HO
[7] = test system: MZ2-MEL
[8] = test system: MeWo
[9] = test system: RPMI7951
[10] = test system: RVH-421
[11] = test system: SkMel28
[12] = test system: SkMel2
[13] = test system: SkMel30
[14] = test system: SkMel5
[15] = test system: UACC257
[16] = test system: UACC62
[17] = test system: WM115
[18] = test system: WM1716
[19] = test system: WM1745
[20] = test system: WM3526
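Also: cells treated in 1,536-well plates, then fixed and DAPI-stained, with nuclei counted from automated high-throughput microscope images.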

SMILES	cell count [1]	cell count [2]	cell count [3]	cell count [4]	cell count [5]	cell count [6]	cell count [7]	cell count [8]	cell count [9]	cell count [10]	cell count [11]	cell count [12]	cell count [13]	cell count [14]	cell count [15]	cell count [16]	cell count [17]	cell count [18]	cell count [19]	cell count [20]
C[C@]12O[C@H](C[C@]1(O)CO)n1c3ccccc3c3c4c(c5c6ccccc6n2c5c31)CNC4=O [Lestaurtinib] + CCCCCCCCc1ccc(CCC(N)(CO)CO)cc1 [fingolimod] (first compound 0.02 µM, partner dose 10 µM)	0.895%	32.6%	12.6%	0.182%	21.9%	2.95%	0.776%	16.6%	1.48%	27.2%	4.24%	0.405%	7.16%	51.3%	79.1%	17.7%	10.3%	28.3%	2.24%	26.6%
N.N.[Cl][Pt][Cl] [cisplatin] + COCC[n+]1c2c(n(Cc3cnccn3)c1C)C(=O)c1ccccc1C2=O [YM155] (first compound 8 µM, partner dose 0.002 µM)	82.9%	48.7%	49.3%	33.5%	52.7%	94.9%	21.5%	37.3%	36.6%	83.8%	46.9%	40.2%	58.7%	41.5%	22.3%	57.7%	82.6%	72.6%	102%	44%
N.N.[Cl][Pt][Cl] [cisplatin] + CNC(=O)c1cc(Oc2ccc(NC(=O)Nc3ccc(Cl)c(C(F)(F)F)c3)cc2)ccn1 [sorafenib] (first compound 8 µM, partner dose 2 µM)	74.7%	83.5%	93.2%	78.5%	118%	78.3%	79.2%	70.1%	71.6%	96.7%	74.1%	82.5%	74.9%	71%	58.1%	83.8%	101%	100%	65%	68.9%
C[As](C)SC[C@H](NC(=O)CC[C@H](N)C(=O)O)C(=O)NCC(=O)O [Darinaparsin] + NCC(=O)Nc1ccc(-n2nc(C(F)(F)F)cc2-c2ccc3c(ccc4ccccc43)c2)cc1 [OSU03012] (first compound 2 µM, partner dose 5 µM)	69.9%	57.4%	74.1%	75.1%	71.9%	86.8%	88.3%	85.1%	70.8%	92.2%	21%	29.5%	19.7%	31.6%	74.2%	36.6%	72%	64%	56.8%	38.2%
C[As](C)SC[C@H](NC(=O)CC[C@H](N)C(=O)O)C(=O)NCC(=O)O [Darinaparsin] + O=c1cc(-c2cccc3c2Sc2ccccc2S3)oc(N2CCOCC2)c1 [KU55933] (first compound 2 µM, partner dose 5 µM)	56.8%	67.6%	85.8%	90.5%	89.8%	79%	81.5%	63.6%	84.1%	76.4%	54.8%	80.7%	71.7%	62.7%	83.1%	60.5%	63.8%	46%	97.2%	58%
Cn1cc(C2=C(c3cn(C4CCN(Cc5ccccn5)CC4)c4ccccc34)C(=O)NC2=O)c2ccccc21 [Enzastaurin] + CN1CCN(c2ccc3nc(-c4c(N)c5c(F)cccc5[nH]c4=O)[nH]c3c2)CC1 [Dovitinib] (first compound 4 µM, partner dose 0.5 µM)	53.2%	77.1%	64.8%	53.1%	134%	63.1%	58.2%	41.8%	19.5%	57.6%	39.6%	46.4%	85.6%	47.9%	69.1%	64.9%	82.3%	62.1%	26.2%	69%
C[C@]12O[C@H](C[C@]1(O)CO)n1c3ccccc3c3c4c(c5c6ccccc6n2c5c31)CNC4=O [Lestaurtinib] + O=c1cc(-c2cccc3c2Sc2ccccc2S3)oc(N2CCOCC2)c1 [KU55933] (first compound 0.02 µM, partner dose 5 µM)	74.5%	77.1%	85.2%	46.7%	94.6%	72.6%	89.1%	67.7%	64.9%	62.5%	65%	85.1%	86.3%	55.4%	87.1%	79.3%	65.3%	80.9%		54.2%
C[C@]12O[C@H](C[C@]1(O)CO)n1c3ccccc3c3c4c(c5c6ccccc6n2c5c31)CNC4=O [Lestaurtinib] + Oc1nc(-c2ccc(C(F)(F)F)cc2)nc2c1CSCC2 [XAV939] (first compound 0.02 µM, partner dose 10 µM)	75.8%	83.2%	94.5%	85.2%	93.1%	78%	132%	73.1%	65.8%	83.3%	55.6%	103%	88.2%	61.9%	83.1%	99.1%	75.9%	70.3%		75.9%
Cn1cc(C2=C(c3cn(C4CCN(Cc5ccccn5)CC4)c4ccccc34)C(=O)NC2=O)c2ccccc21 [Enzastaurin] + COCC[n+]1c2c(n(Cc3cnccn3)c1C)C(=O)c1ccccc1C2=O [YM155] (first compound 4 µM, partner dose 0.002 µM)	62.9%	35.3%	45.4%	20%	32.4%	90.3%	29.8%	23%	34.7%	59.5%	48.9%	33.7%	47.7%	25.4%	25.1%	54.2%	75%	69.9%	61.7%	26.6%
C[C@]12O[C@H](C[C@]1(O)CO)n1c3ccccc3c3c4c(c5c6ccccc6n2c5c31)CNC4=O [Lestaurtinib] + OCc1c[nH]c2ccccc12 [Indole-3-carbinol] (first compound 0.02 µM, partner dose 4 µM)	94.1%	64.8%	101%	56.1%	82.9%	86.7%	104%	77.7%	105%	99.3%	69.6%	100%	75.6%	75.8%	106%	91.3%	68.9%	109%	88.3%	79.8%
N.N.[Cl][Pt][Cl] [cisplatin] + COc1ccc(COc2ccc(Cc3cnc(N)nc3N)cc2OC)cc1 [GW2580] (first compound 8 µM, partner dose 5 µM)	94.4%	101%	103%	95.8%	112%	104%	99.5%	110%	124%	62.1%	100%	106%	127%	95.6%	81.6%	110%	100%	116%		102%
C[C@]12O[C@H](C[C@]1(O)CO)n1c3ccccc3c3c4c(c5c6ccccc6n2c5c31)CNC4=O [Lestaurtinib] + C=C(c1ccc(C(=O)O)cc1)c1cc2c(cc1C)C(C)(C)CCC2(C)C [Bexarotene] (first compound 0.02 µM, partner dose 10 µM)	79.1%	82.7%	86.5%	79.9%	127%	71.6%	85.7%	89.4%	64.6%	84.1%	54.4%	80%	88.9%	76.1%	95.7%	83.1%	94.8%	99.5%	81%	68.9%
C[C@]12O[C@H](C[C@]1(O)CO)n1c3ccccc3c3c4c(c5c6ccccc6n2c5c31)CNC4=O [Lestaurtinib] + COC(=O)c1sccc1S(=O)(=O)Nc1ccc(Nc2ccccc2)cc1OC [GSK0660] (first compound 0.02 µM, partner dose 5 µM)	75.4%	69.8%	93.6%	73.6%	91.2%	74.4%	100%	84.2%	87.1%	96%	83.7%	103%	60.6%	61.3%	95.2%	77.5%	100%	90%		62.6%
N.N.[Cl][Pt][Cl] [cisplatin] + Nc1ccn([C@@H]2O[C@H](CO)[C@@H](O)C2(F)F)c(=O)n1 [gemcitabine] (first compound 8 µM, partner dose 0.002 µM)	74.1%	74.7%	43.9%	74.4%	53.4%	65.8%	86.3%	47.8%	81.9%	53.5%	120%	112%	127%	90.7%	85.1%	91.4%	92.5%	80.3%	44.3%	107%
C[C@]12O[C@H](C[C@]1(O)CO)n1c3ccccc3c3c4c(c5c6ccccc6n2c5c31)CNC4=O [Lestaurtinib] + CC1(C)NC(=O)N(c2ccc([N+](=O)[O-])c(C(F)(F)F)c2)C1=O [nilutamide] (first compound 0.02 µM, partner dose 5 µM)	87.4%	84.4%	95.4%	75.3%	95%	88.7%	135%	77.4%	110%	103%	65.8%	108%	109%	59.9%	109%	106%	93.7%	97.5%	91.6%	65.3%
Cn1cc(C2=C(c3cn(C4CCN(Cc5ccccn5)CC4)c4ccccc34)C(=O)NC2=O)c2ccccc21 [Enzastaurin] + O=C(O)c1ccc(-c2c[nH]c3ncc(-c4ccccc4)cc23)cc1C1CCCC1 [GSK650394] (first compound 4 µM, partner dose 0.8 µM)	63.1%	103%	84.2%	105%	98.8%	78.5%	98.3%	90.5%	61.9%	63%	105%	86.3%	90.1%	68.4%	77.5%	81.7%	97.4%	67.2%	73.4%	97.1%
C[As](C)SC[C@H](NC(=O)CC[C@H](N)C(=O)O)C(=O)NCC(=O)O [Darinaparsin] + N#Cc1c(O)c2c(-c3ccc(-c4ccccc4O)cc3)csc2[nH]c1=O [A769662] (first compound 2 µM, partner dose 10 µM)	75.1%	86.3%	82.3%	71.9%	84.8%	70%	88.8%	74.3%	64%	75.1%	64.5%	102%	95.5%	55.8%	72.6%	91.7%	84.9%	71.2%	94.4%	80.2%
